# Test results reported in PubChem BioAssay AID493208 (National Center for Advancing Translational Sciences (NCATS), 2011).
# In all, about 44,000 compounds went through this assay and about 340 (0.77%) were called active. Roughly 5% stayed inconclusive and do not appear here. Calls come from the whole dose curve; as a rule, active = well fitted inhibition curve with a large enough effect; inconclusive = small, poorly fitted or top-dose-only effect; inactive = flat fitted curve, though single readings scatter. This is one part of the list.
# Assay: Acumen qHTS Assay for Inhibitors of the mTORC1 Signaling Pathway in MEF (Tsc2-/-, p53-/-) Cells: Sytravon; note: nearly all actives have a fitted effect of over 50% in size;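 for activity change, negative = inhibition: plate controls were DMSO for no effect and rapamycin for full effect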
# Conditions: phospho-rpS6 immunofluorescence/PI, 24 h; series mostly up to 38.3 µM; activity change, negative = inhibition: at the top concentration
# In short: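 Immunofluorescence of rpS6 phosphorylation in Tsc2-/-, p53-/- MEFs after 24 h compound exposure, normalized to propidium iodide signal. Activity is expressed as % positive cells, thresholded with 7.5 nM rapamycin.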
# Potency is the fitted concentration of half-maximal effect.
SMILES,"activity change, negative = inhibition",Potency
CCOc1ccc(CNC(=O)CN2N=C(c3ccccc3)CCC2=O)cc1OC,inactive: 5.22%,
Cc1ccc(-n2ncc(C(=O)NCCN3CCN(C)CC3)c2C2CCN(C(=O)OC(C)(C)C)CC2)cc1,inactive: 5.53%,
Cc1nc(C)c(-c2ccc(SCC(=O)Nc3cccc(C)c3C)nn2)s1,inactive: -2.47%,
Cc1ccc(CNC(=O)CSc2nc3ccsc3c(=O)n2-c2ccc(Br)cc2)cc1,inactive: -4.58%,
Cn1c(C(=O)NCCc2ccccc2)cc2sc(Cl)cc21,inactive: 0.107%,
Cc1ccccc1C(=O)NNc1ncnc2c1cnn2-c1cccc(Cl)c1,inactive: 3.79%,
CC(=O)c1ccc(NC(=O)CC2Nc3cc(C)c(C)cc3NC2=O)cc1 (stereo not given),inactive: -19.8%,
CCCc1ccc(NC(=O)C2CCCN(c3cnccn3)C2)cc1 (stereo not given),inactive: 1.78%,
CCOc1cc(CNC(=O)Cn2ncn3c(cc4cc(F)ccc43)c2=O)cc(OCC)c1OCC,inactive: -10.6%,
CCc1ccc(NC(=O)C2CCN(S(=O)(=O)c3cccc(-c4noc(C)n4)c3)CC2)cc1,inactive: -6%,
Cc1ccc(Cn2c(CNC(=O)c3ccc(Cl)c([N+](=O)[O-])c3)nc3cccnc32)cc1,inactive: -12.4%,
CCOc1ccc(Nc2nc(C)c(NC(=O)c3cccc(F)c3)c(Nc3ccc(OCC)cc3)n2)cc1,inactive: -16%,
Cc1noc(C)c1S(=O)(=O)N(CC(=O)NCCc1ccc(Cl)cc1)c1ccc(C(C)C)cc1,inactive: -0.781%,
CCC1Oc2ccc(C)cc2N(CC(=O)N2CCN(c3ccccc3OC)CC2)C1=O (stereo not given),inactive: 3.55%,
COc1ccc(-c2cc(C)no2)cc1S(=O)(=O)NCc1cccs1,inactive: -26.9%,
CCc1cccc(NC(=O)CN2Cc3ccccc3C2=O)c1,inactive: -12%,
CCOC(=O)c1c(S(=O)(=O)N2CCCC(C(=O)Nc3ccccn3)C2)c(C)n(C)c1C (stereo not given),inactive: -0.126%,
COc1cc(CNC(=O)C2CCCCN2S(=O)(=O)c2ccc(F)cc2)cc(OC)c1OC (stereo not given),inactive: -0.599%,
Cc1ccc(CNC(=O)C2CCN(S(=O)(=O)c3ccc(F)cc3)CC2)cc1,inactive: -9.99%,
CC(=O)N1CCc2c(sc3c2c(=O)n(-c2ccc(C)cc2)c(=O)n3Cc2c(F)cccc2Cl)C1,inactive: -1.71%,
COc1ccc(CNC(=O)c2cc(-c3ccc(OC)cc3)nc3n[nH]c(-c4cccc([N+](=O)[O-])c4)c23)cc1,inactive: 0.611%,
COC(=O)c1c(NC(=O)Cc2coc3cc(C)ccc23)sc2c1CCCC2,inactive: -16.2%,
COc1ccccc1CNC(=O)c1cccn1-c1nnc(N2CCCCC2)s1,inactive: -7.02%,
COc1cccc(C(=O)c2cn(CC(=O)NCc3ccccc3Cl)c3nc(C)ccc3c2=O)c1,inactive: -1.96%,

SMILES,"activity change, negative = inhibition",Potency
CCCOc1cccc(C2c3c(oc4ccccc4c3=O)C(=O)N2c2nncs2)c1 (stereo not given),inactive: -4.99%,
Cc1ccc(-c2nc(CS(=O)CC(=O)N3CCN(c4cccc(Cl)c4)CC3)c(C)o2)cc1 (stereo not given),inactive: -13.2%,
Cc1ccc2cccc(NC(=O)COc3ccccc3Cl)c2n1,inactive: 2.37%,
Cc1ccc(C)c(Cn2c(CCCNC(=O)C3CCCCC3)nc3ccccc32)c1,inactive: -4.04%,
Cc1nc(-c2cccc(NC(=O)Nc3ccccc3C(F)(F)F)c2)no1,inactive: -1.36%,
O=C(CSc1nc2ccsc2c(=O)n1Cc1ccccc1Cl)NCc1ccc(F)cc1,inactive: -11.8%,
CCc1ccc(-n2c(=O)c3sc4ccccc4c3n(CC(=O)N3CCCC3)c2=O)cc1,inactive: 1.33%,
CCc1ccc(NC(=O)CCCc2nnc3n(CC(C)C)c(=O)c4sccc4n23)cc1,inactive: 2.56%,
O=C(Nc1c2c(nn1-c1ccc(Cl)cc1)CS(=O)(=O)C2)c1cccc(F)c1,inactive: 4.15%,
COc1ccc(-c2nc(CNS(=O)(=O)c3ccc(Br)cc3)cs2)cc1,inactive: 1.06%,
COC(=O)c1ccc(C2c3c(-c4ccccc4O)n[nH]c3C(=O)N2Cc2ccncc2)cc1 (stereo not given),inactive: 1.49%,
CC(C)c1nn2c(=O)cc(COC(=O)c3ccccc3NC(=O)COc3ccccc3)nc2s1,inactive: 0%,
CC(=O)Nc1ccc(S(=O)(=O)NCCc2cn3ccsc3n2)cc1,inactive: -18%,
Cc1nnc(NC(=O)CSc2nccn2Cc2ccc(F)cc2)s1,inactive: 0%,
O=C(CSc1nc(-c2cccc(F)c2)[nH]c1-c1ccccc1)Nc1ccc2c(c1)OCCO2,inactive: 1.68%,
CCC(=O)N1CCc2cc(OC)c(OC)cc2C1COc1ccccc1OC (stereo not given),inactive: 0.759%,
Cc1cccc(OCc2ccc(-c3nc(C#N)c(NCc4cccnc4)o3)o2)c1,inactive: -7.91%,
COc1ccccc1NC(=O)CN1C(=O)C2(SCC(=O)N2c2ccc(F)c(F)c2)c2ccccc21 (stereo not given),inactive: -4.26%,
Cc1nnc(NC(=O)c2nc(SCc3ccccc3F)ncc2Cl)s1,inactive: -1.41%,
O=C(NCc1ccccc1)C(=O)Nc1ccc2nc3n(c(=O)c2c1)CCCCC3,inactive: 1.22%,
CCc1cc(C(=O)NCc2ccccc2)no1,inactive: 2.7%,
Cc1c(C(=O)Nc2cccc(Cl)c2)oc2ccc(S(=O)(=O)N3CCCCCC3)cc12,inactive: 19.3%,
Cc1cc(C)nc(-n2nc(C)c3c2N(C)C(=O)CC3c2ccc(Cl)cc2)n1 (stereo not given),inactive: -9.1%,
Cc1cc(-c2ccc(S(=O)(=O)Nc3ccccc3F)s2)on1,inactive: 1.45%,

SMILES,"activity change, negative = inhibition",Potency
CC(NC(=O)Cc1ccc(NC(=O)N2CCSc3ncccc32)cc1)c1ccccc1 (stereo not given),inactive: -4.36%,
CCCOc1ccc(C(=O)Nc2ccc(NC(=O)c3ccccc3)c(Br)c2)cc1,,active: 18.5 µM
O=C(CN1C(=O)COc2ccc(S(=O)(=O)NC3CCCC3)cc21)Nc1ccc(Cl)cc1,inactive: 0.998%,
CCOC(=O)c1[nH]c(C)c(C(=O)NC(CC)Cc2ccccc2)c1C (stereo not given),inactive: 0.24%,
O=C(Nc1cccc(-c2cn3cccnc3n2)c1)c1cc(Br)ccc1Cl,inactive: -3.34%,
COc1ccc(C(=O)Nc2cc(C)c(O)c(-c3nc4ccccc4s3)c2)cc1OC,inactive: -2.39%,
Cc1ccc(C)c(NC(=O)Cn2c(=O)n(CC3CCCO3)c(=O)c3ccccc32)c1 (stereo not given),inactive: -17.7%,
CC(=O)Nc1ccc(NC(=O)CSc2nc3ccccc3nc2N2CCCCC2)cc1,inactive: 2.23%,
CCN1CCN(c2ncnc3c2cnn3-c2ccc(C)c(C)c2)CC1,inactive: 9.4%,
Cn1c(-n2cccc2)c(-c2c(-c3ccccc3)[nH]c3c2c(=O)[nH]c(=O)n3C)c(=O)[nH]c1=O,inactive: -5.33%,
Cc1ccc2c(c1)N(CC(=O)NCCc1ccc(Cl)cc1)C(=O)c1cccnc1O2,inactive: -1.11%,
COc1cccc(CNC(=O)c2ccc3c(c2)nc2n3CCOC2)c1,inactive: 7.48%,
Cc1ccc(-c2nnn3c2nc(NCC(C)c2ccccc2)c2ccccc23)cc1 (stereo not given),inactive: -6.27%,
CCOC(=O)CSc1nc2sc3c(c2c(=O)n1-c1ccccc1)CC(C(C)C)OC3 (stereo not given),inactive: 10.2%,
CCOc1ccc(CNC(=O)c2ccc(CS(=O)Cc3ccc(Cl)cc3)o2)cc1 (stereo not given),inactive: 0.621%,
CCOc1ccc(C(=O)Nc2cccc(OCc3cc(=O)n4cc(C)sc4n3)c2)cc1,inactive: 1.59%,
CCCCOC(=O)c1cccc(NC(=O)c2cc3ccccc3o2)c1,inactive: 17.2%,
O=C(Nc1ccc(Cl)cc1F)c1cc(S(=O)(=O)NCc2ccc3c(c2)OCO3)ccc1F,inactive: -12.3%,
CCc1ccc2oc(C(=O)Nc3sc4c(c3C(=O)NC)CCCC4)cc(=O)c2c1,inactive: 3.38%,
COc1cccc(CNCCSc2nnnn2C)c1OCc1ccccc1F,inactive: -10.5%,
CN(C)CCn1c2c(c(SCC(=O)Nc3ccc(F)cc3F)nc1=O)CCC2,inactive: 6.2%,
O=C(NCCc1ccccc1)c1ccc(CSc2nc3ccncc3n2Cc2ccc(F)cc2)cc1,inactive: 2.57%,
CCCCn1cc(S(=O)(=O)c2cccc(C)c2)c(=O)c2cc(F)c(N3CCOCC3)cc21,inactive: -5.71%,
Cc1ccc(C)c(Cn2nc(-c3cc(C)ccc3C)ccc2=O)c1,inactive: -7.47%,

SMILES,"activity change, negative = inhibition",Potency
CCOC(=O)c1c(S(=O)(=O)N2CCCC(C(=O)N3CCN(c4ccccc4)CC3)C2)c(C)n(C)c1C (stereo not given),inactive: -0.042%,
Cc1ccccc1OC(=O)CSc1nnc(-c2cccs2)o1,inactive: -0.665%,
COc1cccc(N2CC(NC(=O)c3ccc(S(=O)(=O)N4CCCCC4)cc3)CC2=O)c1 (stereo not given),inactive: -7.99%,
CCOc1ccc(S(=O)(=O)NCC(c2ccco2)S(=O)(=O)c2ccc(F)cc2)cc1 (stereo not given),inactive: 1.5%,
COc1ccc(-c2nc3ccccc3o2)cc1NC(=O)COc1ccc(C(C)(C)C)cc1,inactive: 2.03%,
CCOC(=O)c1cc2c(=O)n3ccccc3nc2n(CC2CCCO2)c1=NC(=O)c1ccc(C)cc1 (stereo not given),inactive: 0%,
O=[N+]([O-])c1ccc(C(c2sc3nc(-c4ccco4)nn3c2O)N2CCN(c3cccc(Cl)c3)CC2)cc1 (stereo not given),inactive: -6.06%,
CCc1cccc(NC(=O)Cn2nc(-c3cc(C)ccc3C)ccc2=O)c1,inactive: -4.1%,
Cc1nnc(NCc2ccccc2)c2c1nnn2Cc1ccc(F)cc1,inactive: -2.22%,
Cc1ccc(CN2C(=O)C3(c4ccccc42)N(c2cccc(C(F)(F)F)c2)C(=O)CS3(=O)=O)cc1 (stereo not given),inactive: 3.89%,
COc1ccccc1NC(=O)CSc1oc(-c2cccs2)nc1S(=O)(=O)c1ccccc1,inactive: 0.546%,
O=c1cc(CSc2n[nH]c(-c3ccccc3)n2)[nH]c2ccccc12,inactive: -13.1%,
COc1cc(NC(=O)c2cc3c(=O)n(Cc4cccs4)ccc3nc2C)cc(OC)c1OC,inactive: -14.4%,
CC(Oc1ccccc1Cl)C(=O)N1CCN(CCc2ccccn2)CC1 (stereo not given),inactive: -11.3%,
O=C(CN1C(=O)COc2ccc(S(=O)(=O)N3CCOCC3)cc21)N1CCN(c2ccc(F)cc2)CC1,inactive: 2.16%,
CC(Sc1nc(=O)cc(N)n1CCc1ccccc1)C(=O)Nc1ccccc1C#N (stereo not given),inactive: 4.7%,
COc1ccc(OC)c(NC(=O)CN2C(=O)CCc3cc(S(=O)(=O)N4CCCCC4)ccc32)c1,inactive: 0%,
O=C(NC1CCCCC1)c1ccc2c(c1)N(Cc1ccc(Cl)cc1)C(=O)c1ccccc1S2(=O)=O,inactive: -3.67%,
COc1cccc(N2CCN(C(=O)c3cnn(-c4ccc(C)cc4C)c3C3CCN(C(=O)OC(C)(C)C)CC3)CC2)c1,inactive: 0.811%,
CC(=O)N1c2c(cc(Br)cc2S(=O)(=O)N2CCN(c3cccc(Cl)c3)CC2)CC1C (stereo not given),inactive: -1.55%,
CCN(Cc1ccccc1)C(=O)c1cc2c(s1)-c1c(C)cccc1OC2,inactive: -1.6%,
Cc1ccc(Cl)cc1NC(=O)Cn1c(=O)n(Cc2ccc(C(=O)NCc3ccc4c(c3)OCO4)cc2)c(=O)c2ccccc21,inactive: -26.2%,
CC(=O)c1cccc(NS(=O)(=O)c2ccc3c(c2)NC(=O)CC(=O)N3)c1,inactive: -1.22%,
